This note sets out measurements from the RNAGym collection of RNA variant scans (doi:10.7554/elife.90254).

Read counts are not given, so values of variants with three or more changes are uncertain.

B1: LINE1-mini (parent)
chain: GGCAGAGCUCAACACAGCGUGGCAAAGUGGCUGUGGCUAGACUGCC

In the data set the parent is B1. Kind of data set: self-cleavage, relative activity (ratio to wild type); higher = more cleavage; in vitro, sequencing; the parent is a self-cleaving ribozyme.
In the case of GGGAGGGCUCAACACAUCGUGGCAAAGUGGCUGUGGCUAGACUGCC, the self-cleavage turned out to be 0.03.

Consider GGAAGAGCACAACCCAGCGUGGCAAAGUUUCUGUGGCUACACUGCC, for which the self-cleavage worked out at 0.03.

As for GGGAGGGCUCAACACAGCGUGGCAAAGUGGCUGUGGCAAGACUGCC, the self-cleavage stood at 0.08.

GGAAGAGCGUAAGACAGCGUGGCAAAGUUGCUGUGGCUAGCCUGCC: the self-cleavage was 0.03.

Turning to GGAAGAGCCCAACACAGCGUGGCUAAGUGGCUGUGGCUAGACUGCC, the self-cleavage was determined as 0.05.

On to GGAAGAGCUCAACACAGCGGGGCAAAGUGGAGGUGGCUAGGCUGAC, for which the self-cleavage was determined as 0.04.

GGAAGAGCUCAACACAGCGAGGCAAAGUGGCUGUGGCUAGACUGUC: the self-cleavage was 0.42.

Regarding GGAAGAGCCCAACACAGCGUGGCAUACUGGUUGUGGCUAGACUGCC, the self-cleavage amounted to 0.01.

On to GGGUGAGCUCAACACAGCGUGCCAAAGUGGCUGUGGCGAGACUGCC, for which the self-cleavage was found to be 0.01.

As to GGGAGGGCUCAACACAGCGUGGCAAAGUGGCAGUGGCUAGACUGCU, the self-cleavage was 0.11.

Turning to GGGCGAGCUCAACACAGCGUGGCAAAGUGGUUGUGGCUAGACUGCC, the self-cleavage turned out to be 0.08.

As to GGGCGAGCUCAACACAGCGUGGCAAAGUGGAUGUGGCUAGACUGCC, the self-cleavage is 0.61.

As for GGAAGAGCUCAACACAGCGUGGCAAAGGGGCUGUGGCUAGACCGCC, the self-cleavage is 0.08.

As for GGGGGAGCUCAACUCAGCGUGGCAAAGUGGCUGUGGCUCGACUGCC, the self-cleavage came to 0.02.

On to GGGGGAGCCCAACACAGAGUGGCAAAGUGGCUGUGGCUAGAAUGCC, for which the self-cleavage worked out at 0.01.

Turning to GGAAGAGCUCAACACAGCGUGGCAAAGUAGCUGUGUUUAGACUGCC, the self-cleavage is 0.18.

GGAAGAGCUCAACACAGCGUUGCAAAGUUGCUGUGGCUAGACUACC: the self-cleavage worked out at 0.66.

For GGAAGAGCUCAACACAGCGUGGCAAAGCGGUUGUGGCUAGACUGCC, the self-cleavage was 0.12.

As for GGGAGUGCUCAACACAACGUGGCAAAGUGGCUGUGGCUAGACUGCC, the self-cleavage was 0.06.

Consider GGAAGAGCUCAACACAGCGUGGCAAAGCGCCUGUGGCUAGACUGCC, for which the self-cleavage amounted to 0.79.

Take GGGUGAGCUCAACACAGCGUAGCAAACUGGCUGUGGCUAGACUGCC: the self-cleavage turned out to be 0.25.

As to GGAAGAGCUCAACACAGCAUGGCAAAGUGGCUGUGGCUAGAUUGCC, the self-cleavage was found to be 0.11.

As for GGAAGAGCUCAACACAGCGUGGCAAAGUGGCUGUGCCUGGACUGCC, the self-cleavage was 0.23.

As to GGGAGGGCUCAACACAGCGUGGGAAAGUGGCUGUGGAUAGACUGCC, the self-cleavage stood at 0.2.

Turning to GGAAGAGCUCAACACAGCAUGGCAAUGUGGCUGUGGCUAGACUGCC, the self-cleavage came to 1.53.

With GGAAGAGCGCAACACAGCGUGGCAAAGUGGCUGUGGCUAGACUGGC, the self-cleavage was found to be 0.94.

Turning to GGAAGAGCACAACACAGCGUCGCAAAGUGGCUGUAGCUAGACUGCC, the self-cleavage was determined as 0.52.

On to GGGAGCGCUCAACACAGCGUGACAAAGUGGCUGUGCCUAGACUGCC, for which the self-cleavage worked out at 0.29.

As to GGGAGGGCUCAACACAGAGUGGCAAAGUGGCUGUGGCUAGACUGCC, the self-cleavage amounted to 0.12.

In the case of GGGGGAGCUCAAGACAGCGUGGCAAAUUGGCUGUGGCUAGAGUGCC, the self-cleavage stood at 0.11.

As for GGAAGAGCACAACACAGCGUGGCGAAGUGGCUGUGUCUAGACUGCC, the self-cleavage was found to be 0.61.

As for GGGAGAGCUCUACACAGCGUUGCAAAGUCGCUGUGGCUAGACUGCC, the self-cleavage is 0.02.

Regarding GGAAGAGCUCAACACAGCGUUUCAAAGUGGCUGUGGCUAGACUGCC, the self-cleavage was found to be 1.91.

Take GGAAGAGCGCAACAUAGCGUGUCAUAGUGGCUGUGGCUAGACAGCC: the self-cleavage stood at 0.08.

For the variant GGAAGAGCUCAACACAGCGUGCCAAAGUGGCUGUGGCUAGACUCCC, the self-cleavage is 0.23.

Consider GGAAGAGCACAAGACAGCGUGGCGAAGUGGCUGUGGCUAGACUGCC, for which the self-cleavage amounted to 0.01.

On to GGAAGAGCGCAACCCAGCGUGGCAAAGUGGCUGUGGCUAGACUGCC, for which the self-cleavage came to 0.41.

As to GGAAGAGCUCAACACAGCCUGGCAAAGUGGAUGUGGCUAGACUGCC, the self-cleavage is 0.27.

Consider GGGCGAGCUCAACACAGCGUGGCAACGAGGCUGUGGCUAGACUGCC, for which the self-cleavage came out at 0.02.

Turning to GGGGGUGCUCAACACAGAGUGGCAAAGUGACUGUGGCUAGACUGCC, the self-cleavage amounted to 0.24.

As to GGAAGAGCUCAACACAGCACGGCAAAGUGGCUGAGGCUAGACUGCC, the self-cleavage amounted to 0.27.

On to GGGUGUGCUGAACCCAGCGUGACAAAGUGGCUGUUGCUAGACUGCA, for which the self-cleavage was found to be 0.03.

Regarding GGAAGAGCUCAACACAGCGUGGCAAAGUAGCUGUGGCUAGAUUGCC, the self-cleavage worked out at 0.34.

Turning to GGAAGAGCUCAACACAGCGUGGCAAAGUCGCUGUGGCAAGACUGCC, the self-cleavage turned out to be 0.36.

As to GGAAGAGCUCAACACAGCGUGGCAAAGUGGCUGUGACUAGACUGAC, the self-cleavage turned out to be 0.08.

Take GGAAGAGCUCAACACAGCGUGGCAAAGUGGCAGUCGCUAGCCUGCC: the self-cleavage was 0.12.

For GGAAGAGCUCAACACAGCGUGGCAAAGUGGCUGUGACUAGACUGCG, the self-cleavage came out at 0.38.

GGAAGAGCUCAACACAGCCUGGCACAGUGGCUGUGGCUAGACUGCC: the self-cleavage was determined as 0.08.

Consider GGGGGAGCUCAACACAGCGUGGCAAAGUGACUGUGGCUAGACUACC, for which the self-cleavage stood at 0.04.

As for GGAAGAGCUCAACACAGCGUGGCAAAGUGUCUCUGACUAGACUGGC, the self-cleavage is 0.01.

Turning to GGAAGAGCUCAACACAGCGUGGCAAAGUGGCCGUGGCUAGACUGCG, the self-cleavage worked out at 0.13.

GGAAGAGCUCAACACAGCGUGGCAAAGUGUCUGUGGCUAGGGUGCC: the self-cleavage stood at 0.09.

In the case of GGGCAAGCACAACACAGCGUGGCAAAGUGGCUGUGGCUAGACUGCC, the self-cleavage came to 0.18.

On to GGAAGAGCUCAACACAGCGUAGCAAAGUGGGUGUGGCUAGACUGCG, for which the self-cleavage stood at 0.06.

GGGCGAGCUCAACGCAGCGUGGCAAAGUGGCUGUGUCUAAAGUGCC: the self-cleavage came out at 2.37.

GGGUGAGCUCAACACAGCGUGGCAAAGUGGCUGUGGCUAGUUUUCC: the self-cleavage was 0.11.
